# Test results: the supplement of paper PMC8728848
# This is one part of the list.
# Experiments:
# Assay in all cases: glycan array binding signal (z-score within array); higher = stronger binding
# Conditions in all cases: glycan notation: IUPAC condensed, linker removed
# [1] = molecular target: Fuc(a1-2)Gal(b1-4)GlcNAc(b1-6)GalNAc
# Procedure, shortened: (§1)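 From the Consortium for Functional Glycomics database, 3228 arrays were curated, keeping only those whose protein sequence was available. Binding is given as a within-array Z-score averaged across arrays sharing a protein sequence and across linkers. Negative Z-scores can be read as non-binding.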
# [2] = molecular target: Fuc(a1-2)Gal(b1-4)GlcNAc6S
# Procedure, shortened: as §1
# [3] = molecular target: Fuc(a1-2)Gal(b1-4)[Fuc(a1-3)]GlcNAc
# Procedure, shortened: as §1
# [4] = molecular target: Fuc(a1-2)Gal(b1-4)[Fuc(a1-3)]GlcNAc(b1-2)Man(a1-3)[Fuc(a1-2)Gal(b1-4)[Fuc(a1-3)]GlcNAc(b1-2)Man(a1-6)]Man(b1-4)GlcNAc(b1-4)GlcNAc
# Procedure, shortened: as §1
# [5] = molecular target: Fuc(a1-2)Gal(b1-4)[Fuc(a1-3)]GlcNAc(b1-2)Man(a1-3)[Fuc(a1-2)Gal(b1-4)[Fuc(a1-3)]GlcNAc(b1-2)Man(a1-6)]Man(b1-4)GlcNAc(b1-4)[Fuc(a1-6)]GlcNAc
# Procedure, shortened: as §1
# [6] = molecular target: Fuc(a1-2)Gal(b1-4)[Fuc(a1-3)]GlcNAc(b1-2)[Fuc(a1-2)Gal(b1-4)[Fuc(a1-3)]GlcNAc(b1-4)]Man(a1-3)[Fuc(a1-2)Gal(b1-4)[Fuc(a1-3)]GlcNAc(b1-2)Man(a1-6)]Man(b1-4)GlcNAc(b1-4)GlcNAc
# Procedure, shortened: as §1
# [7] = molecular target: Fuc(a1-2)Gal(b1-4)[Fuc(a1-3)]GlcNAc(b1-3)Gal(b1-4)[Fuc(a1-3)]GlcNAc
# Procedure, shortened: as §1
# [8] = molecular target: Fuc(a1-2)Gal(b1-4)[Fuc(a1-3)]GlcNAc(b1-3)Gal(b1-4)[Fuc(a1-3)]GlcNAc(b1-3)Gal(b1-4)[Fuc(a1-3)]GlcNAc
# Procedure, shortened: as §1
# [9] = molecular target: Fuc(a1-2)Gal(b1-4)[Fuc(a1-3)]GlcNAc(b1-3)GalNAc
# Procedure, shortened: as §1
# [10] = molecular target: Fuc(a1-2)Gal(b1-4)[Fuc(a1-3)]GlcNAc(b1-3)[Neu5Ac(a2-6)Gal(b1-4)GlcNAc(b1-6)]Gal(b1-4)Glc
# Procedure, shortened: as §1
# [11] = molecular target: Fuc(a1-2)Gal3S(b1-4)GlcNAc
# Procedure, shortened: as §1
# [12] = molecular target: Fuc(a1-2)Gal6S(b1-3)GlcNAc
# Procedure, shortened: as §1
# [13] = molecular target: Fuc(a1-2)Gal6S(b1-3)GlcNAc6S
# Procedure, shortened: as §1
# [14] = molecular target: Fuc(a1-2)Gal6S(b1-4)Glc
# Procedure, shortened: as §1
# [15] = molecular target: Fuc(a1-2)Gal6S(b1-4)Glc6S
# Procedure, shortened: as §1
# [16] = molecular target: Fuc(a1-2)Gal6S(b1-4)GlcNAc
# Procedure, shortened: as §1
# [17] = molecular target: Fuc(a1-2)[Gal(a1-3)]Gal
# Procedure, shortened: as §1
# [18] = molecular target: Fuc(a1-2)[Gal(a1-3)]Gal(b1-3)GalNAc
# Procedure, shortened: as §1
# [19] = molecular target: Fuc(a1-2)[Gal(a1-3)]Gal(b1-3)GalNAc(b1-3)Gal(a1-4)Gal(b1-4)Glc
# Procedure, shortened: as §1
# [20] = molecular target: Fuc(a1-2)[Gal(a1-3)]Gal(b1-3)GlcNAc
# Procedure, shortened: as §1
# [21] = molecular target: Fuc(a1-2)[Gal(a1-3)]Gal(b1-3)GlcNAc(b1-2)Man(a1-3)[Fuc(a1-2)[Gal(a1-3)]Gal(b1-3)GlcNAc(b1-2)Man(a1-6)]Man(b1-4)GlcNAc(b1-4)GlcNAc
# Procedure, shortened: as §1
# [22] = molecular target: Fuc(a1-2)[Gal(a1-3)]Gal(b1-3)GlcNAc(b1-2)Man(a1-3)[Fuc(a1-2)[Gal(a1-3)]Gal(b1-3)GlcNAc(b1-2)Man(a1-6)]Man(b1-4)GlcNAc(b1-4)[Fuc(a1-6)]GlcNAc
# Procedure, shortened: as §1
# [23] = molecular target: Fuc(a1-2)[Gal(a1-3)]Gal(b1-3)GlcNAc(b1-3)GalNAc
# Procedure, shortened: as §1
# [24] = molecular target: Fuc(a1-2)[Gal(a1-3)]Gal(b1-3)GlcNAc(b1-6)GalNAc
# Procedure, shortened: as §1
# [25] = molecular target: Fuc(a1-2)[Gal(a1-3)]Gal(b1-4)Glc
# Procedure, shortened: as §1
# [26] = molecular target: Fuc(a1-2)[Gal(a1-3)]Gal(b1-4)GlcNAc
# Procedure, shortened: as §1
# [27] = molecular target: Fuc(a1-2)[Gal(a1-3)]Gal(b1-4)GlcNAc(b1-2)Man
# Procedure, shortened: as §1
# [28] = molecular target: Fuc(a1-2)[Gal(a1-3)]Gal(b1-4)GlcNAc(b1-2)Man(a1-3)[Fuc(a1-2)[Gal(a1-3)]Gal(b1-4)GlcNAc(b1-2)Man(a1-6)]Man(b1-4)GlcNAc(b1-4)GlcNAc
# Procedure, shortened: as §1
# [29] = molecular target: Fuc(a1-2)[Gal(a1-3)]Gal(b1-4)GlcNAc(b1-2)Man(a1-3)[Fuc(a1-2)[Gal(a1-3)]Gal(b1-4)GlcNAc(b1-2)Man(a1-6)]Man(b1-4)GlcNAc(b1-4)[Fuc(a1-6)]GlcNAc
# Procedure, shortened: as §1
# [30] = molecular target: Fuc(a1-2)[Gal(a1-3)]Gal(b1-4)GlcNAc(b1-3)GalNAc
# Procedure, shortened: as §1
# [31] = molecular target: Fuc(a1-2)[Gal(a1-3)]Gal(b1-4)GlcNAc(b1-6)GalNAc
# Procedure, shortened: as §1
# [32] = molecular target: Fuc(a1-2)[Gal(a1-3)]Gal(b1-4)[Fuc(a1-3)]Glc
# Procedure, shortened: as §1
# [33] = molecular target: Fuc(a1-2)[Gal(a1-3)]Gal(b1-4)[Fuc(a1-3)]GlcNAc
# Procedure, shortened: as §1
# [34] = molecular target: Fuc(a1-2)[Gal(a1-3)]Gal(b1-4)[Fuc(a1-3)]GlcNAc(b1-3)GalNAc
# Procedure, shortened: as §1
# [35] = molecular target: Fuc(a1-2)[Gal(a1-4)]Gal(b1-4)GlcNAc
# Procedure, shortened: as §1
# [36] = molecular target: Fuc(a1-2)[GalNAc(a1-3)]Gal
# Procedure, shortened: as §1
# [37] = molecular target: Fuc(a1-2)[GalNAc(a1-3)]Gal(b1-3)GalNAc(a1-3)[Fuc(a1-2)]Gal(b1-4)GlcNAc
# Procedure, shortened: as §1
# [38] = molecular target: Fuc(a1-2)[GalNAc(a1-3)]Gal(b1-3)GalNAc(b1-3)Gal(a1-4)Gal(b1-4)Glc
# Procedure, shortened: as §1
binder,measurement,setting,value
"PA-IL (Pseudomonas aeruginosa), Q05097 (protein) MAWKGEVLANNEAGQVTSIIYNPGDVITIVAAGWASYGPTQKWGPQGDREHPDQGLICHDAFCGALVMKIGNSGTIPVNTGLFRWVAPNNVQGAITLIYNDVPGTYGNNSGSFSVNIGKDQS",glycan array binding signal (z-score),[1],-0.201
same,glycan array binding signal (z-score),[2],-0.226
same,glycan array binding signal (z-score),[3],-0.23
same,glycan array binding signal (z-score),[4],-0.221
same,glycan array binding signal (z-score),[5],-0.206
same,glycan array binding signal (z-score),[6],-0.185
same,glycan array binding signal (z-score),[7],-0.206
same,glycan array binding signal (z-score),[8],-0.213
same,glycan array binding signal (z-score),[9],-0.192
same,glycan array binding signal (z-score),[10],-0.236
same,glycan array binding signal (z-score),[11],-0.217
same,glycan array binding signal (z-score),[12],-0.225
same,glycan array binding signal (z-score),[13],-0.184
same,glycan array binding signal (z-score),[14],-0.229
same,glycan array binding signal (z-score),[15],-0.226
same,glycan array binding signal (z-score),[16],-0.222
same,glycan array binding signal (z-score),[17],0.664
same,glycan array binding signal (z-score),[18],0.269
same,glycan array binding signal (z-score),[19],-0.186
same,glycan array binding signal (z-score),[20],0.039
same,glycan array binding signal (z-score),[21],0.564
same,glycan array binding signal (z-score),[22],-0.189
same,glycan array binding signal (z-score),[23],-0.21
same,glycan array binding signal (z-score),[24],-0.223
same,glycan array binding signal (z-score),[25],-0.027
same,glycan array binding signal (z-score),[26],1.18
same,glycan array binding signal (z-score),[27],-0.101
same,glycan array binding signal (z-score),[28],1.29
same,glycan array binding signal (z-score),[29],0.017
same,glycan array binding signal (z-score),[30],0.009
same,glycan array binding signal (z-score),[31],-0.221
same,glycan array binding signal (z-score),[32],-0.19
same,glycan array binding signal (z-score),[33],0.612
same,glycan array binding signal (z-score),[34],-0.214
same,glycan array binding signal (z-score),[35],5.44
same,glycan array binding signal (z-score),[36],-0.214
same,glycan array binding signal (z-score),[37],-0.234
same,glycan array binding signal (z-score),[38],-0.237
